Test results: PubChem BioAssay AID1347073 (National Center for Advancing Translational Sciences (NCATS), 2019)
Hit rate of the full screen: of about 45,000 compounds, about 200 (0.44%) were called active. Roughly 7% stayed inconclusive and do not appear here. Calls follow the shape of the dose curve; as a rule, active = well fitted activation curve with a large enough effect; inconclusive = small, poorly fitted or top-dose-only effect; inactive = no such curve, though single readings can be large or run the other way. The list shows a part of the results.

assay: qHTS of TDP-43 Inhibitors: NCGC Sytravon Library Screen; conditions: yeast TDP-43 toxicity rescue, BacTiter-Glo growth, 24 h; at 46.1 µM (top of the series); also: 0% is about no effect; nearly all actives have a fitted effect of over 55% in size
In short: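 TDP-43-expressing yeast, pregrown in raffinose, seeded at OD600 0.02 in galactose medium with compound for 24 hr at 30 deg C. Growth read by BacTiter-Glo luminescence, so rescue of toxicity appears as activation.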

SMILES	growth rescue (activation)
CN1CCN2c3ccccc3CC3(C(=O)N(C)C(=O)N(C)C3=O)C2C1 (stereo not drawn)	inactive: -0.703%
CCc1ccc(N2C(=O)NC(=O)/C(=C\c3cc(C)n(-c4cc(C(=O)O)cc(C(=O)O)c4)c3C)C2=O)cc1	inactive: 3.91%
O=C(N/N=C\C1C(=O)NC(=S)N(c2ccccc2)C1=O)c1ccc(O)cc1 (stereo not drawn)	inactive: 1.54%
COc1ccc(Cc2c(O)[nH]c(=S)[nH]c2=O)cc1	inactive: -18.9%
C[C@]12CCC(=O)C=C1C=CC1C2CC[C@]2(C)C(=O)CCC12 (stereo partly drawn)	inactive: 23.8%
CC(Cc1ccsc1)NCc1cn[nH]c1-c1ccc(F)cc1F (stereo not drawn)	inactive: 3.67%
Cc1cc(C=C2C(=O)N(C)C(=S)N(C)C2=O)c(C)n1C1CCCCC1	inactive: -6.99%
CC(=O)Nc1ccccc1C(=O)OCC(=O)Nc1ncccn1	inactive: 8.23%
CCOC(=O)c1c(NS(=O)(=O)c2ccccc2)n(CCCOC)c2nc3ccccc3nc12	inactive: 3.2%
CCC1(C)OC(c2ccccc2)=C/C(=C/C=C2C(=O)NC(=O)NC2=O)O1 (stereo not drawn)	inactive: -7.99%
CCN(CCO)c1ccc(N=Cc2c(O)n(C)c(=S)[nH]c2=O)cc1	inactive: -3.35%
CCn1c(=N)n(Cc2ccccc2F)c2ccccc21	inactive: -1.4%
COc1cc(OC)c(OC)cc1CNCCc1ccc(F)cc1	inactive: -3.63%
Cn1cc(/C=C2\C(=O)NC(=O)N(c3ccccc3)C2=O)c2ccccc21	inactive: -22.7%
COc1ccc(-n2c(Cc3cccc([N+](=O)[O-])c3)nc3ccccc3c2=O)cc1	inactive: -21.2%
O=c1[nH]c(O)c(/C=C2\C=Nc3ccc(OCc4ccccc4)cc32)c(=O)[nH]1	inactive: 8.7%
O=C(COC(=O)Cc1ccccc1)Nc1cc(S(=O)(=O)N2CCOCC2)ccc1N1CCCC1	inactive: 12.5%
COc1cc(C(=O)OC2C[C@H]3CC[C@@H](C2)N3C)ccc1O (stereo partly drawn)	inactive: 4.94%
CCN1/C(=C\C=C\C2=[N+](CC)c3ccccc3C2(C)C)C(C)(C)c2ccccc21	inactive: -93%
O=C1NC(=O)C(CCc2ccncc2)(CCc2ccncc2)C(=O)N1CCc1ccccc1	inactive: 5.55%

SMILES	growth rescue (activation)
COc1ccc(C(=O)C2CCCN(Cc3cccc(C)n3)C2)c(OC)c1 (stereo not drawn)	inactive: 3.02%
CN(C)CCN=Cc1c(O)n(Cc2ccc3c(c2)OCO3)c(=S)[nH]c1=O	inactive: 14.8%
C[C@]12CCC(=O)C=C1CCC1C2CC[C@@]2(C)C1CC[C@@H]2O (stereo partly drawn)	inactive: 21.5%
O=C(O)Cn1cc(/C=C2\C(=O)NC(=O)N(c3ccc(Br)cc3)C2=O)c2ccccc21	inactive: 6.84%
CN1/C(=C\C=C2C(=O)NC(=S)NC2=O)C(C)(C)c2ccccc21	inactive: -12.6%
O=C(N/N=C/c1c(O)n(CCC2=CCCCC2)c(=S)[nH]c1=O)c1ccccc1	inactive: 7.67%
O=P(Nc1cccnc1)(Oc1ccccc1)Oc1ccccc1	inactive: -0.129%
COc1ccccc1N1CCN(Cc2cc(C)c(C)cc2O)CC1	inactive: 13.7%
CSc1ncc(/C=C2/C(=O)NC(=O)N(c3ccc(C)cc3)C2=O)cn1	inactive: 3.69%
COc1ccc(-n2c(O)c(/C=C3\C=Nc4ccc(Br)cc43)c(=O)[nH]c2=O)cc1	inactive: -8.23%
O=C(Nc1ccccc1)OC1CN=C(N[N+](=O)[O-])NC1 (stereo not drawn)	inactive: -1.8%
O=c1c2ccccc2ncn1-c1ccc([N+](=O)[O-])c(C(F)(F)F)c1	inactive: -14.4%
O=C(CN1CCCC1)Nc1ccc(Cl)cc1C(=O)c1ccccc1	inactive: -1.66%
Cc1ccc(OCC(=O)Nc2ccc(Cl)cc2C(=O)c2ccccc2)cc1	inactive: -1.38%
Cc1ccc(-c2nn(CCC#N)cc2C(=O)O)cc1C	inactive: 6.74%
Cn1c(O)c(C=NC2CCCCC2)c(=O)[nH]c1=S	inactive: -1.49%
CC(C)(C)c1ccc(O)c(N=Cc2c(O)ccc3ccccc23)c1	inactive: -21.4%
C=CCn1c(O)c(/C=C2\C=Nc3ccccc32)c(=O)[nH]c1=O	inactive: 1.05%
Cn1cccc1/C=C1\C(=O)NC(=O)N(Cc2ccccc2Cl)C1=O	inactive: -13.3%
O=c1c2ccccc2nc(Cc2cccc([N+](=O)[O-])c2)n1-c1ccc(O)cc1	inactive: 15.5%

SMILES	growth rescue (activation)
Cc1ccc(C(=O)C2CN3CCC2CC3)cc1 (stereo not drawn)	inactive: 2.39%
Nc1c(C(=O)NCC2CCCO2)c2nc3ccccc3nc2n1Cc1ccco1 (stereo not drawn)	inactive: 14%
CCCSP1(=S)NCCCO1 (stereo not drawn)	inactive: 1.25%
C[C@H]1CC2C3CC=C4C[C@@H](O)CC[C@]4(C)C3CC[C@]2(C)[C@H]1O (stereo partly drawn)	inactive: 5.51%
C/C(=N\Nc1ccccc1)c1c(O)n(C)c(=O)n(C)c1=O	inactive: -28.3%
Cc1ccc(-n2c(O)c(/C=N/Nc3ccccc3)c(=O)[nH]c2=O)cc1C	inactive: -7.65%
Cc1cc(C)cc(N2C(=O)/C(=C\c3ccc(N4CCN(C)CC4)o3)C(=O)NC2=S)c1	inactive: -2.04%
O=C(O)[C@H]1NC[C@H]2C[C@H]21	inactive: -4.91%
Cc1cccc(-n2c(O)c(C=Nc3ccc(S(N)(=O)=O)cc3)c(=O)[nH]c2=O)c1	inactive: -13.9%
C1CNC2NCCNC2N1 (stereo not drawn)	inactive: -0.0793%
CC(C)CN1CCN(Cc2ccc(C(F)(F)F)cc2)CC1CCO (stereo not drawn)	inactive: -5.31%
O=S(=O)(c1ccccc1)N1CN2CCN(C2)C1	inactive: 27.4%
Cc1sc(-n2c(C)cc(C=C3C(=O)NC(=O)NC3=O)c2C)c(C#N)c1C	inactive: -2.98%
CC(C)(C)c1ccc(C(=O)C2CCCN(C3CCC3)C2)cc1 (stereo not drawn)	inactive: 9.89%
CCCCCn1c(=O)c(C(=O)Nc2ccccc2S(N)(=O)=O)c(O)c2ccccc21	inactive: 1.51%
CCN1C(=O)C(=C2C=C(C)N(Cc3ccco3)C(C)=C2)C(=O)N(CC)C1=S	inactive: 14.9%
COc1ccc(-c2nn(CCC#N)cc2C(=O)O)cc1	inactive: 5.6%
Cc1cccc(CN2CCCC(C(=O)c3ccc(C(F)(F)F)cc3)C2)n1 (stereo not drawn)	inactive: -2.29%
